Measurements reported in PubChem BioAssay AID485367 (National Center for Advancing Translational Sciences (NCATS), 2010).
About 560 (0.17%) of roughly 330,000 compounds were called active. This list was built around the results that the source calls inconclusive (neither active nor inactive); the mix of calls is not that of the screen. The call rests on the fitted dose curve; in most records, active means well fitted inhibition curve with a large enough effect; inconclusive means small, poorly fitted or top-dose-only effect, or effect the other way; inactive means flat fitted curve, though single readings scatter. No potency is given beside an inconclusive call; the fits are too rough.

target: ATP-dependent 6-phosphofructokinase (Trypanosoma brucei brucei) (UniProt O15648); test: qHTS Assay to Find Inhibitors of T. brucei phosphofructokinase; further: nearly all actives have a fitted effect of over 60% in size;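 on activity, negative = inhibition: 0% = uninhibited 1x PFK enzyme wells and -100% = no-enzyme wells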; settings: T. brucei PFK, ADP-Glo luminescence; activity, negative = inhibition: at 57.5 µM (top of the series)
Sequence of UniProt O15648 (O15648 whole entry, looked up): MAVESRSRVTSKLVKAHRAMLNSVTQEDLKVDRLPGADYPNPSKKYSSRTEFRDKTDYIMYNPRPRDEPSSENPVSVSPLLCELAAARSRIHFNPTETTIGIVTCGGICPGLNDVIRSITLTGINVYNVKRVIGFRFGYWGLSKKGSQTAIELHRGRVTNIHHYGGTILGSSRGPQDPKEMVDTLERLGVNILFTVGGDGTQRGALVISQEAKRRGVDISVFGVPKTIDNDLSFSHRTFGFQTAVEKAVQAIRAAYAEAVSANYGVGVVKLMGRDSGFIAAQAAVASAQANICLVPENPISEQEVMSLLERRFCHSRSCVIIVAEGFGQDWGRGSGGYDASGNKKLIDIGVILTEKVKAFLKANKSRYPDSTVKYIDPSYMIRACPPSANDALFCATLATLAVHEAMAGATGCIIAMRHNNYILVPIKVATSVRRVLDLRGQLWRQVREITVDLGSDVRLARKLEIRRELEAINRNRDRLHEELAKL
In short: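 Activity is normalized to no-enzyme wells (full inhibition) and 1.25 nM enzyme wells (no inhibition). Reaction: 0.5 mM F6P, 0.1 mM ATP, 45 min RT, ADP-Glo luminescence; concentration-response curves fitted and classed by quality.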
Potency means the concentration at half of the fitted maximal effect; tags describe the fitted curve by direction and shape.

| Structure (SMILES) | Potency | activity, negative = inhibition |
| --- | --- | --- |
| COc1ccc2ccc3c(c2c1)N=C[C@]1(O3)N(C)c2ccccc2C1(C)C | inconclusive [falling, single point] | – |
| CCC(=O)Nc1ccc(OCc2nc3ccccc3s2)cc1 | inconclusive [falling, partial curve] | – |
| CCOC(=O)c1cccc(NC(=O)C2CCCO2)c1 (centres undefined) | inconclusive [falling, single point] | – |
| O=C(Nc1ccc2c(c1)OCCO2)NC1(C(F)(F)F)Oc2ccccc2O1 | inconclusive [falling, single point] | – |
| N#CCSc1nc2ccccc2c(=O)n1CCC(=O)NCCc1ccccc1 | inconclusive [falling, single point] | – |
| O=C(OCC(=O)N1CCN(c2cccc(Cl)c2)CC1)c1ccco1 | active: 21.3 µM | – |
| COc1ccc(CC(=O)OCC(=O)NC2CC2)cc1 | active: 23.9 µM | – |
| Cc1cc(C)n(CCC(=O)N/N=C/c2ccccc2O)n1 | inconclusive [falling, partial curve, poor fit] | – |
| COc1cc(C(=S)N2CCN(c3cccc(Cl)c3)CC2)ccc1O | inconclusive [falling, full curve] | – |
| N#Cc1ccc2ccn(CC(=O)NCc3ccco3)c2c1 | active: 21.3 µM | – |
| C=CCN1C(=O)/C(=C/c2ccc(OC(C)=O)c(OCC)c2[N+](=O)[O-])SC1=S | – | inactive: -0.967% |
| CN1CCN(C(c2cccnc2)c2ccc3cccnc3c2O)CC1 (centres undefined) | inconclusive [falling, single point] | – |
| COc1ccc(C2/C(=C(\O)c3cccc(OC)c3)C(=O)C(=O)N2c2ccccn2)cc1 (centres undefined) | inconclusive [falling, single point] | – |
| O=C(O)C(CO)N=Cc1c(O)c2ccccc2oc1=O (centres undefined) | inconclusive [activator, single point] | – |
| CNC(=O)Cc1csc2ccc(Cl)cc12 | inconclusive [falling, single point] | – |
| N#Cc1cccc(NC(=O)COC(=O)c2cccc(N3C(=O)c4ccccc4C3=O)c2)c1 | inconclusive [falling, partial curve] | – |
| Fc1ccccc1Cn1c2[n+](c3ccc(C(F)(F)F)cc31)CCCCC2 | – | inactive: 1.36% |
| CC1(C)Cc2c(c(N3CCCC3)[nH]c(=S)c2C#N)CO1 | – | inactive: -6.68% |
| NC(=O)c1ccccc1O | inconclusive [activator, single point] | – |
| O=C(N/N=C/c1cc(Br)c(O)c(Br)c1O)c1cccnc1 | inconclusive [activator, single point] | – |
| COc1ccc(N2CCN(C(=O)C3CCN(C(=O)c4ccc([N+](=O)[O-])cc4)CC3)CC2)cc1 | inconclusive [falling, single point] | – |
| O=C(COC(=O)c1ccccc1Br)Nc1ccc2[nH]c(=O)[nH]c2c1 | inconclusive [falling, single point] | – |

| Structure (SMILES) | Potency | activity, negative = inhibition |
| --- | --- | --- |
| Cc1ccc(C)c(NC(=O)C(OC(=O)c2ccc(NC(=O)CC#N)cc2)c2ccccc2)c1 (centres undefined) | inconclusive [falling, single point] | – |
| Nc1nc2ccccc2n1CCOc1ccc(F)cc1 | inconclusive [falling, partial curve] | – |
| C=C(C)C(=O)Nc1cccc(C2=NOC3(C2)C[C@@H](C(N)=O)N(C(=O)CC(c2ccccc2)c2ccccc2)C3)c1 (some centres undefined) | active: 30.1 µM | – |
| O=C(O)C(Cc1ccccc1)N1C(=O)/C(=C/C=C/c2ccco2)SC1=S (centres undefined) | inconclusive [falling, partial curve] | – |
| Cc1ccc(NC(=O)NCc2cccnc2)cc1Cl | inconclusive [falling, single point] | – |
| CCN(c1ccc(F)cc1)S(=O)(=O)c1ccc2[nH]cc(C(=O)NCCCN3CCOCC3)c(=O)c2c1 | – | inactive: -0.817% |
| Cn1c(N)c(C(=O)COC(=O)Cc2cccc(C(F)(F)F)c2)c(=O)n(C)c1=O | inconclusive [falling, partial curve] | – |
| Cc1cccc(N=C2NC(=O)/C(=C/C=C/c3ccco3)S2)c1C | inconclusive [falling, partial curve] | – |
| Cc1c(NS(=O)(=O)c2ccc(Cl)c(C(=O)OC(C)C(=O)N3CCOCC3)c2)c(=O)n(-c2ccccc2)n1C (centres undefined) | – | inactive: 4.47% |
| CN(C)/C=C1/C=C(c2ccccc2)OC1=O | inconclusive [falling, single point] | – |
| O=C(O)c1ccc2c(c1)C(=O)N(Cc1ccco1)C2=O | – | inactive: 0.82% |
| CC(=O)NCCc1nc2cc(NC(=O)c3cccc([N+](=O)[O-])c3)ccc2n1C | – | inactive: 0.415% |
| O=C(N/N=C/c1ccncc1)c1ccc(NC(=O)c2cccc(Cl)c2)cc1 | inconclusive [activator, partial curve] | – |
| Cc1cccc(NS(=O)(=O)c2ccc(C(=O)NCC3(N4CCCCC4)CCCCC3)cc2)c1C | inconclusive [falling, single point] | – |
| NC(=O)c1ccccc1N/C=C/C(=O)c1cccs1 | inconclusive [activator, single point] | – |
| CCN(CC)S(=O)(=O)c1ccc(N/N=C/c2ccccc2OCC(=O)O)c([N+](=O)[O-])c1 | inconclusive [falling, single point] | – |
| CSCC[C@H](NC(=O)Nc1ccc(C)cc1C)C(=O)O | inconclusive [activator, single point] | – |
| COCC(=O)N1CCN(c2cccc(Cl)c2)CC1 | inconclusive [falling, single point] | – |
| CS(=O)(=O)Nc1ccc(-c2ccc(/C=C3\SC(N)=NC3=O)o2)cc1 | inconclusive [falling, single point] | – |
| COC(=O)c1sccc1NC(=O)CSc1ccccc1NS(=O)(=O)c1ccc(Cl)cc1 | – | inactive: -4.97% |
| O=C(/C=C/c1cccc([N+](=O)[O-])c1)NC(=S)Nc1ccccc1C(=O)O | inconclusive [falling, single point] | – |
| CCN1CCN(CCOCCOc2ccccc2)CC1 | inconclusive [falling, single point] | – |
